These are yes or no findings as the source states them, for the method shown. In cells and extracts the contact can be indirect. Some results given as binding are weak or reduced against the parent protein; the word gives no strength. Where a sequence is shown, tags or fusion partners need not be part of it.
target: GFP-Talpid3 (human) (UniProt Q9BVV6); assay: co-IP; HEK293T cells co-transfected with the GFP- and myc-tagged constructs; lysates 24 h after transfection immunoprecipitated (anti-GFP antibody in the mapping) and immunoblotted

Amino acid sequences for entries named in this document (tags omitted).
UniProt Q9BVV6: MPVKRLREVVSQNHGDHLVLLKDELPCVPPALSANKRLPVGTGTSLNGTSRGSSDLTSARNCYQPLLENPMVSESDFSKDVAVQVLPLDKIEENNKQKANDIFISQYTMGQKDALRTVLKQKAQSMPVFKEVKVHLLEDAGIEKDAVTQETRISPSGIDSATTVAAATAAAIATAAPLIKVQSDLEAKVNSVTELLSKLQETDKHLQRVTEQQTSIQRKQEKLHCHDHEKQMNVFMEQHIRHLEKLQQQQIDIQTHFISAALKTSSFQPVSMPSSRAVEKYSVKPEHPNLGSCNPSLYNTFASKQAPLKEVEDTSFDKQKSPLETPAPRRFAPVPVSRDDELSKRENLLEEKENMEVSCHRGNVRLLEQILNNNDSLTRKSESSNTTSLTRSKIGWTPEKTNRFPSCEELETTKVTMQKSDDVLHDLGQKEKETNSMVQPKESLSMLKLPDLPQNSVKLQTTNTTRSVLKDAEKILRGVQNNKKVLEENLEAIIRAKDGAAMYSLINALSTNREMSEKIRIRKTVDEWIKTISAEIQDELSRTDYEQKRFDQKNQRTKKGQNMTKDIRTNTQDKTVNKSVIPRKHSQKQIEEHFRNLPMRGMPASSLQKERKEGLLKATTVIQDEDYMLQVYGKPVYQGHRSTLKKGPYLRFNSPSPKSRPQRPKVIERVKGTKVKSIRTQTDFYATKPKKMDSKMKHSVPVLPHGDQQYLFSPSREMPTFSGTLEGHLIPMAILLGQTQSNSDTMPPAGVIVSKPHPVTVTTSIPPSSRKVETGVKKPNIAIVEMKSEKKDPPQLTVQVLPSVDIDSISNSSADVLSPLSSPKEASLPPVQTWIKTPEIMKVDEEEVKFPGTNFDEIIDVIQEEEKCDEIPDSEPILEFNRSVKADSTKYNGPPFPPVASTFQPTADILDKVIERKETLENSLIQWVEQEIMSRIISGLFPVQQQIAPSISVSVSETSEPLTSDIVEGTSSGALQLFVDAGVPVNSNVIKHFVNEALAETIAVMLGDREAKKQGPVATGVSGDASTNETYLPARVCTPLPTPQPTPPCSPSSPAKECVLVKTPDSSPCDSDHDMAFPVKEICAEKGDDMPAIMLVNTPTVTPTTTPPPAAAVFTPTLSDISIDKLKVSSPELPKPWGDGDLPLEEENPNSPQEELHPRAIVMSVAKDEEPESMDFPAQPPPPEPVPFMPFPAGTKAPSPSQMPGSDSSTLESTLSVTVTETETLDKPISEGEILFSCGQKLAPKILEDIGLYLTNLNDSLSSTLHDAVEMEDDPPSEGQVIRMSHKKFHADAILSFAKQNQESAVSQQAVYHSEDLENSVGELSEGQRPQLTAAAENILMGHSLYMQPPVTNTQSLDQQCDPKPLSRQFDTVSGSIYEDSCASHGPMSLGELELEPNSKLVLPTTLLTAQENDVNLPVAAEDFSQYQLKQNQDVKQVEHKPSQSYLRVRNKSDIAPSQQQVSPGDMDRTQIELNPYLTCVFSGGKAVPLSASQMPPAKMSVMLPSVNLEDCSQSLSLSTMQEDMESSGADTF
UniProt Q4AC94: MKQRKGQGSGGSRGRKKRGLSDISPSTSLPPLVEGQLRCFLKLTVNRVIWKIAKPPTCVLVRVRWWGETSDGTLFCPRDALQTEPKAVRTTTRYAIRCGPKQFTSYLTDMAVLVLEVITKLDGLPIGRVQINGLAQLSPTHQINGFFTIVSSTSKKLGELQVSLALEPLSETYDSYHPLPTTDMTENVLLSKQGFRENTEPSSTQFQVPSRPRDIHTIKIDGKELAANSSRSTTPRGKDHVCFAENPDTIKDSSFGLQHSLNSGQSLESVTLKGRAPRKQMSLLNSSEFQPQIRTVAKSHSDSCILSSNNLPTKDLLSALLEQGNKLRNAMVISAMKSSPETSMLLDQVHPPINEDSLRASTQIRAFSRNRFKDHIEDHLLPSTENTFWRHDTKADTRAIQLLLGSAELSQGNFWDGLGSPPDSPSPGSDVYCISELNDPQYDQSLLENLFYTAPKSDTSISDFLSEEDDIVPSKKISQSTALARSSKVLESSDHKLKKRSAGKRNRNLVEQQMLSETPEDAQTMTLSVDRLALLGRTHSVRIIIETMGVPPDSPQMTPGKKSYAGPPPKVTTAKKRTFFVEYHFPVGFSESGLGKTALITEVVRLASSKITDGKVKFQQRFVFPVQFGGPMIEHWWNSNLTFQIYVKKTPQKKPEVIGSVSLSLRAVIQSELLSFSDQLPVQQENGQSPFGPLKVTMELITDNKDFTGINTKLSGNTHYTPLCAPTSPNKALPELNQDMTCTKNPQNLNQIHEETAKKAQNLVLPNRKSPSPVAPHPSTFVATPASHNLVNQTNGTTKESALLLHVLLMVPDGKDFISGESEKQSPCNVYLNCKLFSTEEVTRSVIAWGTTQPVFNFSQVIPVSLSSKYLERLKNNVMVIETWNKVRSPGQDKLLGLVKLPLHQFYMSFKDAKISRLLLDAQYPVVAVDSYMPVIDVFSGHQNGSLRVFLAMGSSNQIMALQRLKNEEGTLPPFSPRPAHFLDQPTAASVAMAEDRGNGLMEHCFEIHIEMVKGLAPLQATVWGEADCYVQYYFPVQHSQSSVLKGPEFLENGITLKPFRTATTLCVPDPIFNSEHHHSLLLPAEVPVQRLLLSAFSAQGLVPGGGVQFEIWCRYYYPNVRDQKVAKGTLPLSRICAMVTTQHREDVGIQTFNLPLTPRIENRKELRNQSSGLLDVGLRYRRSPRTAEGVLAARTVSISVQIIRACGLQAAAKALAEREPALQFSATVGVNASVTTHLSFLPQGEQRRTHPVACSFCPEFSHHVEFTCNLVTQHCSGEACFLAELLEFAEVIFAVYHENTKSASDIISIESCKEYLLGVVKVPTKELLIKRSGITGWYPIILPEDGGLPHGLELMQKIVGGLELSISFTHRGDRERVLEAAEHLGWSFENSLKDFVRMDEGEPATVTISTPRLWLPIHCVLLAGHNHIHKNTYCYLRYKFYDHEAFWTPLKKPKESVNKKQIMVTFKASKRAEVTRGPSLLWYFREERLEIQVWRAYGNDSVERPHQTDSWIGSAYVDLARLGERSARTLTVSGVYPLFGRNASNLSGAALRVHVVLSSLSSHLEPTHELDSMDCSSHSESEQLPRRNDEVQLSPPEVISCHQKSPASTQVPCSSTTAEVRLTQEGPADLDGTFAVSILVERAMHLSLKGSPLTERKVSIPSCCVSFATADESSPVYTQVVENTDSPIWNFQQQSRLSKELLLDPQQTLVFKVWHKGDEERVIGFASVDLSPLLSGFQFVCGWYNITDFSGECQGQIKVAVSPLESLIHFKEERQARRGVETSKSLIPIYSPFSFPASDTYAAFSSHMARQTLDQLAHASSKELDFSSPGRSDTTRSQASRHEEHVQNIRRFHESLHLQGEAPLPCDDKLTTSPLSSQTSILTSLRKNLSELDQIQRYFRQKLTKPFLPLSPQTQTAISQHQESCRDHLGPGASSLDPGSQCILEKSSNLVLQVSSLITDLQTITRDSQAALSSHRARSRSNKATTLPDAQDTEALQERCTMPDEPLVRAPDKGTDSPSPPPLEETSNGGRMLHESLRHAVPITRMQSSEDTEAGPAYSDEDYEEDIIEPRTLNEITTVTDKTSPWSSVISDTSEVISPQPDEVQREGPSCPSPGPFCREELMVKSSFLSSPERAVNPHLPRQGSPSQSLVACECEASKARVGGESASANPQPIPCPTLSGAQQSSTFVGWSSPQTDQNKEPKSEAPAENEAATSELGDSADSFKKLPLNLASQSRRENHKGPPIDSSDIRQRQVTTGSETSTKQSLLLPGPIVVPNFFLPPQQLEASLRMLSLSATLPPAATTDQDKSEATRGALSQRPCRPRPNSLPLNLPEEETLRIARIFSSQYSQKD

Binder | binding
full-length CEP120-myc (aa 1–986) (protein, UniProt Q8N960 1-986) MVSKSDQLLIVVSILEGRHFPKRPKHMLVVEAKFDGEQLATDPVDHTDQPEFATELAWEIDRKALHQHRLQRTPIKLQCFALDPVTSAKETIGYIVLDLRTAQETKQAPKWYQLLSNKYTKFKSEIQISIALETDTKPPVDSFKAKGAPPRDGKVPAILAGLDPRDIVAVLNEEGGYHQIGPAEYCTDSFIMSVTIAFATQLEQLIPCTMKLPERQPEFFFYYSLLGNDVTNEPFNDLINPNFEPERASVRIRSSVEILRVYLALQSKLQIHLCCGDQSLGSTEIPLTGLLKKGSTEINQHPVTVEGAFTLDPPNRAKQKLAPIPVELAPTVGVSVALQREGIDSQSLIELKTQNEHEPEHSKKKVLTPIKEKTLTGPKSPTVSPVPSHNQSPPTKDDATESEVESLQYDKDTKPNPKASSSVPASLAQLVTTSNASEVASGQKIAVPATSHHFCFSIDLRSIHALEIGFPINCILRYSYPFFGSAAPIMTNPPVEVRKNMEVFLPQSYCAFDFATMPHQLQDTFLRIPLLVELWHKDKMSKDLLLGIARIQLSNILSSEKTRFLGSNGEQCWRQTYSESVPVIAAQGSNNRIADLSYTVTLEDYGLVKMREIFISDSSQGVSAVQQKPSSLPPAPCPSEIQTEPRETLEYKAALELEMWKEMQEDIFENQLKQKELAHMQALAEEWKKRDRERESLVKKKVAEYTILEGKLQKTLIDLEKREQQLASVESELQREKKELQSERQRNLQELQDSIRRAKEDCIHQVELERLKIKQLEEDKHRLQQQLNDAENKYKILEKEFQQFKDQQNNKPEIRLQSEINLLTLEKVELERKLESATKSKLHYKQQWGRALKELARLKQREQESQMARLKKQQEELEQMRLRYLAAEEKDTVKTERQELLDIRNELNRLRQQEQKQYQDSTEIASGKKDGPHGSVLEEGLDDYLTRLIEERDTLMRTGVYNHEDRIISELDRQIREILAKSNASN | binds
myc-tagged CEP120 (aa 416–730) (domain or fragment, UniProt Q8N960 416-730) NPKASSSVPASLAQLVTTSNASEVASGQKIAVPATSHHFCFSIDLRSIHALEIGFPINCILRYSYPFFGSAAPIMTNPPVEVRKNMEVFLPQSYCAFDFATMPHQLQDTFLRIPLLVELWHKDKMSKDLLLGIARIQLSNILSSEKTRFLGSNGEQCWRQTYSESVPVIAAQGSNNRIADLSYTVTLEDYGLVKMREIFISDSSQGVSAVQQKPSSLPPAPCPSEIQTEPRETLEYKAALELEMWKEMQEDIFENQLKQKELAHMQALAEEWKKRDRERESLVKKKVAEYTILEGKLQKTLIDLEKREQQLASVE | binds
myc-tagged CEP120 (aa 416–894) (domain or fragment, UniProt Q8N960 416-894) NPKASSSVPASLAQLVTTSNASEVASGQKIAVPATSHHFCFSIDLRSIHALEIGFPINCILRYSYPFFGSAAPIMTNPPVEVRKNMEVFLPQSYCAFDFATMPHQLQDTFLRIPLLVELWHKDKMSKDLLLGIARIQLSNILSSEKTRFLGSNGEQCWRQTYSESVPVIAAQGSNNRIADLSYTVTLEDYGLVKMREIFISDSSQGVSAVQQKPSSLPPAPCPSEIQTEPRETLEYKAALELEMWKEMQEDIFENQLKQKELAHMQALAEEWKKRDRERESLVKKKVAEYTILEGKLQKTLIDLEKREQQLASVESELQREKKELQSERQRNLQELQDSIRRAKEDCIHQVELERLKIKQLEEDKHRLQQQLNDAENKYKILEKEFQQFKDQQNNKPEIRLQSEINLLTLEKVELERKLESATKSKLHYKQQWGRALKELARLKQREQESQMARLKKQQEELEQMRLRYLAAEEKDTVK | binds

target: full-length GFP-C2CD3 (human) (UniProt Q4AC94); assay: as above

Binder | binding
full-length CEP120-myc (aa 1–986) (protein, UniProt Q8N960 1-986) MVSKSDQLLIVVSILEGRHFPKRPKHMLVVEAKFDGEQLATDPVDHTDQPEFATELAWEIDRKALHQHRLQRTPIKLQCFALDPVTSAKETIGYIVLDLRTAQETKQAPKWYQLLSNKYTKFKSEIQISIALETDTKPPVDSFKAKGAPPRDGKVPAILAGLDPRDIVAVLNEEGGYHQIGPAEYCTDSFIMSVTIAFATQLEQLIPCTMKLPERQPEFFFYYSLLGNDVTNEPFNDLINPNFEPERASVRIRSSVEILRVYLALQSKLQIHLCCGDQSLGSTEIPLTGLLKKGSTEINQHPVTVEGAFTLDPPNRAKQKLAPIPVELAPTVGVSVALQREGIDSQSLIELKTQNEHEPEHSKKKVLTPIKEKTLTGPKSPTVSPVPSHNQSPPTKDDATESEVESLQYDKDTKPNPKASSSVPASLAQLVTTSNASEVASGQKIAVPATSHHFCFSIDLRSIHALEIGFPINCILRYSYPFFGSAAPIMTNPPVEVRKNMEVFLPQSYCAFDFATMPHQLQDTFLRIPLLVELWHKDKMSKDLLLGIARIQLSNILSSEKTRFLGSNGEQCWRQTYSESVPVIAAQGSNNRIADLSYTVTLEDYGLVKMREIFISDSSQGVSAVQQKPSSLPPAPCPSEIQTEPRETLEYKAALELEMWKEMQEDIFENQLKQKELAHMQALAEEWKKRDRERESLVKKKVAEYTILEGKLQKTLIDLEKREQQLASVESELQREKKELQSERQRNLQELQDSIRRAKEDCIHQVELERLKIKQLEEDKHRLQQQLNDAENKYKILEKEFQQFKDQQNNKPEIRLQSEINLLTLEKVELERKLESATKSKLHYKQQWGRALKELARLKQREQESQMARLKKQQEELEQMRLRYLAAEEKDTVKTERQELLDIRNELNRLRQQEQKQYQDSTEIASGKKDGPHGSVLEEGLDDYLTRLIEERDTLMRTGVYNHEDRIISELDRQIREILAKSNASN | binds
CEP120-myc (aa 1–894) (domain or fragment, UniProt Q8N960 1-894) MVSKSDQLLIVVSILEGRHFPKRPKHMLVVEAKFDGEQLATDPVDHTDQPEFATELAWEIDRKALHQHRLQRTPIKLQCFALDPVTSAKETIGYIVLDLRTAQETKQAPKWYQLLSNKYTKFKSEIQISIALETDTKPPVDSFKAKGAPPRDGKVPAILAGLDPRDIVAVLNEEGGYHQIGPAEYCTDSFIMSVTIAFATQLEQLIPCTMKLPERQPEFFFYYSLLGNDVTNEPFNDLINPNFEPERASVRIRSSVEILRVYLALQSKLQIHLCCGDQSLGSTEIPLTGLLKKGSTEINQHPVTVEGAFTLDPPNRAKQKLAPIPVELAPTVGVSVALQREGIDSQSLIELKTQNEHEPEHSKKKVLTPIKEKTLTGPKSPTVSPVPSHNQSPPTKDDATESEVESLQYDKDTKPNPKASSSVPASLAQLVTTSNASEVASGQKIAVPATSHHFCFSIDLRSIHALEIGFPINCILRYSYPFFGSAAPIMTNPPVEVRKNMEVFLPQSYCAFDFATMPHQLQDTFLRIPLLVELWHKDKMSKDLLLGIARIQLSNILSSEKTRFLGSNGEQCWRQTYSESVPVIAAQGSNNRIADLSYTVTLEDYGLVKMREIFISDSSQGVSAVQQKPSSLPPAPCPSEIQTEPRETLEYKAALELEMWKEMQEDIFENQLKQKELAHMQALAEEWKKRDRERESLVKKKVAEYTILEGKLQKTLIDLEKREQQLASVESELQREKKELQSERQRNLQELQDSIRRAKEDCIHQVELERLKIKQLEEDKHRLQQQLNDAENKYKILEKEFQQFKDQQNNKPEIRLQSEINLLTLEKVELERKLESATKSKLHYKQQWGRALKELARLKQREQESQMARLKKQQEELEQMRLRYLAAEEKDTVK | no binding
CEP120 (aa 1–730), myc-tagged (domain or fragment, UniProt Q8N960 1-730) MVSKSDQLLIVVSILEGRHFPKRPKHMLVVEAKFDGEQLATDPVDHTDQPEFATELAWEIDRKALHQHRLQRTPIKLQCFALDPVTSAKETIGYIVLDLRTAQETKQAPKWYQLLSNKYTKFKSEIQISIALETDTKPPVDSFKAKGAPPRDGKVPAILAGLDPRDIVAVLNEEGGYHQIGPAEYCTDSFIMSVTIAFATQLEQLIPCTMKLPERQPEFFFYYSLLGNDVTNEPFNDLINPNFEPERASVRIRSSVEILRVYLALQSKLQIHLCCGDQSLGSTEIPLTGLLKKGSTEINQHPVTVEGAFTLDPPNRAKQKLAPIPVELAPTVGVSVALQREGIDSQSLIELKTQNEHEPEHSKKKVLTPIKEKTLTGPKSPTVSPVPSHNQSPPTKDDATESEVESLQYDKDTKPNPKASSSVPASLAQLVTTSNASEVASGQKIAVPATSHHFCFSIDLRSIHALEIGFPINCILRYSYPFFGSAAPIMTNPPVEVRKNMEVFLPQSYCAFDFATMPHQLQDTFLRIPLLVELWHKDKMSKDLLLGIARIQLSNILSSEKTRFLGSNGEQCWRQTYSESVPVIAAQGSNNRIADLSYTVTLEDYGLVKMREIFISDSSQGVSAVQQKPSSLPPAPCPSEIQTEPRETLEYKAALELEMWKEMQEDIFENQLKQKELAHMQALAEEWKKRDRERESLVKKKVAEYTILEGKLQKTLIDLEKREQQLASVE | no binding

Source: article PMC6465297
